# Reference: the supplement of paper PMC3334620
# In all, about 33,000 sequences were measured (“E-score (-0.5 to 0.5)”: median about -0.016, highest 2% from about 0.31 on). The list shows a part of the results.
# Biological target: Cst6 (UniProt P40535)
# Assay: PBM E-score (8-mer binding enrichment) (E-score (-0.5 to 0.5)); higher = stronger / more preferred TF binding; most listed sequences are background and not binding sites
# Details: protein concentration: 200 nM; construct: GST-DNA-binding domain
# Procedure, shortened: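 PURExpress in vitro transcription/translation supplied GST-tagged yeast transcription factors, either full-length or DNA-binding domain. Applied at about 100-200 nM to universal all-10-mer Agilent arrays double-stranded by primer extension, the bound protein was detected with fluorescent anti-GST. E-scores, modified Wilcoxon-Mann-Whitney statistics, were given by the Universal PBM Analysis Suite to ungapped eight-base words pooled with their reverse complements after masliner normalisation.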
row,Sequence,PBM E-score
1,ATCTACTC,0.0449
2,GCTATGCA,-0.0158
3,ATCGGAGG,-0.206
4,ACATGCGG,0.174
5,AGTGGAGG,-0.119
6,AGAGACGC,-0.176
7,CGGTTGAA,0.0202
8,TAATATTA,0.391
9,CCTCTCGC,-0.293
10,ATCGCAAT,0.0785
11,CCACATAA,0.0581
12,CGGCGCAA,0.184
13,ACGTCACT,0.495
14,CTCACTTC,-0.243
15,GATTTGGC,-0.102
16,AGCATAGA,-0.0923
17,ATGCCCGA,-0.155
18,CCCATTTA,0.0685
19,CACAAGCC,-0.104
20,CGACGATC,0.0483
21,AACAGTGT,-0.00381
22,CGCGACAA,0.14
23,AGCCACAT,0.123
24,GATACACC,0.104
25,AGGCCGGA,-0.257

row,Sequence,PBM E-score
1,ACGAACGT,0.0376
2,CATAGACG,0.00338
3,GAAGTCTC,-0.205
4,CGGAAACA,-0.0803
5,CGAGGGCC,-0.302
6,AAAGGAGG,-0.177
7,CAATAATC,0.085
8,ATGATCAT,0.198
9,ATGGGGTC,-0.168
10,TGAGGTAA,0.414
11,CGTAAACC,-0.0197
12,CGTCAAGA,0.178
13,TAGACCTA,-0.159
14,CTTCTTTC,-0.195
15,GCGCGAGA,0.0429
16,GCTTAAGC,-0.18
17,CTCGGATA,0.036
18,GCGCTTGA,0.0619
19,ACTGAAGG,-0.174
20,AAACCTGA,0.0656
21,ACGCACGC,0.142
22,CGTAGCCA,-0.0816
23,CAGTGCAG,-0.191
24,CTAGGTGA,-0.126
25,AACCATGG,-0.128

row,Sequence,PBM E-score
1,AGCCACGG,-0.178
2,ATGGTAAT,0.182
3,AGATCGTA,-0.23
4,CGTACCAG,-0.0409
5,AGCCGTCA,0.201
6,TTGGACAA,0.0139
7,ATGTACAT,0.216
8,ATCTTTGG,-0.0128
9,GATCCTAA,-0.161
10,CCAGAGGG,-0.221
11,CTCAACAA,0.231
12,ATTCGAGG,-0.108
13,CTTGGTAA,-0.0484
14,CGGTTGGC,-0.0665
15,GGCAGAAC,-0.0718
16,GAATCGTC,0.0373
17,ATATTACA,0.248
18,AATATAAA,0.331
19,AGTCTAGC,-0.349
20,GACATCCC,-0.0212
21,AGGAACGA,-0.1
22,CCGACTGC,-0.22
23,ACTCAGCT,-0.08
24,ATCTGCAA,0.0182
25,ACTCTCGC,-0.204

row,Sequence,PBM E-score
1,ACTGCGGA,-0.126
2,ACCGCGCT,-0.0955
3,GATCGGGC,-0.226
4,ACTTTTAA,0.155
5,CCACGAGC,-0.264
6,AGTTTCCC,-0.22
7,CGCGAAGA,-0.097
8,AGATATGG,0.0318
9,AAAGCCAA,0.089
10,CCTGTAAA,-0.183
11,CCCTGAAA,0.0354
12,AGAGAGAT,0.0939
13,CCGCTTCA,-0.149
14,ATGGGTTA,0.0761
15,GGCCCGAA,-0.15
16,AGACCCAC,-0.103
17,ATTTTAGA,0.0483
18,GGTCCAAA,-0.0637
19,CAGACTTC,-0.284
20,GCAGACAA,-0.0336
21,AGCACGCC,-0.0736
22,AGGAGGTA,-0.187
23,CTGTGATA,0.0843
24,ATCCGAAT,0.145
25,ATAGACTG,-0.0127

row,Sequence,PBM E-score
1,CGAAACTC,-0.137
2,CCGGAACG,-0.15
3,AAGGATCT,-0.151
4,AGCAGGAA,-0.15
5,GCAAGAGA,-0.13
6,GCTCGTAC,-0.142
7,GGCGGTTA,-0.156
8,ACCGATTC,-0.16
9,GAATCATC,0.118
10,CATCTGAA,0.037
11,AGTCAGGC,-0.0425
12,CGTCGTCA,0.258
13,TCGAACCA,-0.0349
14,ACGCGCGC,0.175
15,AAACCCCA,-0.158
16,CTATCAGA,-0.0869
17,CTGTGGTC,-0.215
18,AGCATTAA,0.083
19,ACGACCAG,0.0245
20,TGTATTAA,0.237
21,ACCTCTAA,-0.0311
22,AGGCTGGG,-0.259
23,CGATATTC,-0.0716
24,AATACATG,0.0527
25,AGATATAC,0.053

row,Sequence,PBM E-score
1,AATGGAGG,-0.164
2,ACAGGAGG,-0.31
3,GCGACGGA,-0.224
4,ATAGAGCC,0.101
5,AAGGACAG,-0.107
6,GTTAGGTA,0.137
7,ATATCGTA,0.172
8,CTGCGAAC,-0.0611
9,GTCTTCCA,-0.228
10,ACATAATG,0.266
11,ATAATTAC,0.349
12,ACGATAAT,0.24
13,ATCCGCAG,0.0287
14,CGCTATAG,-0.101
15,GCACGTAA,0.232
16,ACAACTAC,-0.0522
17,GTAGTAAA,0.0555
18,GTCTTCAC,-0.124
19,GGGGCCTA,-0.383
20,CTATCAAG,-0.0952
21,ACCGGCTA,-0.144
22,GCTTGACC,-0.262
23,GGAAGCGA,0.0849
24,AAGGATAA,0.0603
25,AAAGGAGA,-0.156

row,Sequence,PBM E-score
1,AGAAACGC,-0.0132
2,ATGTCCGG,-0.0972
3,AAAGACTC,-0.172
4,ATATTAGA,0.253
5,GTGTTAAA,0.0585
6,CCATGCCG,0.152
7,GGCAGGTA,-0.232
8,CCAAGGTA,-0.253
9,CGAGTGAA,0.0464
10,GAAATGTA,0.11
11,CGTCTGCA,-0.0743
12,CGCTCAGC,-0.0498
13,CAGATACG,0.0888
14,AAACGCCT,0.0465
15,AGATATGA,0.176
16,CCACGTCA,0.472
17,GATCGTGA,0.0378
18,AGATGTTA,-0.00774
19,TGAATTCA,0.276
20,AAAAAGTT,0.14
21,GGACATCA,0.188
22,AGCAAATC,0.0424
